# The supplement of paper PMC8728848
# This is one part of the list.
# What was measured:
# Experiment in all cases: glycan array binding signal (z-score within array); higher = stronger binding
# Settings in all cases: glycan notation: IUPAC condensed, linker removed
# Gal3S(b1-4)GlcNAc = target: Gal3S(b1-4)GlcNAc
# Summary of the method: (§1)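 Glycan array data were curated from 3228 arrays in the Consortium for Functional Glycomics database and kept only where the protein sequence was available. Glycan names were converted to IUPAC-condensed notation, and columns mapping to the same glycan were averaged. The binding signal is a within-array Z-score, averaged across arrays of the same protein sequence at different concentrations or buffers and across linkers. Negative Z-scores can be read as non-binding.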
# Gal3S(b1-4)GlcNAc6S = target: Gal3S(b1-4)GlcNAc6S
# Summary of the method: as §1
# [1] = target: Gal3S(b1-4)[Fuc(a1-3)]Glc
# Summary of the method: as §1
# Gal3S4S(b1-4)GlcNAc = target: Gal3S4S(b1-4)GlcNAc
# Summary of the method: as §1
# Gal3S6S(b1-4)GlcNAc = target: Gal3S6S(b1-4)GlcNAc
# Summary of the method: as §1
# Gal3S6S(b1-4)GlcNAc6S = target: Gal3S6S(b1-4)GlcNAc6S
# Summary of the method: as §1
# Gal4S(b1-4)GlcNAc = target: Gal4S(b1-4)GlcNAc
# Summary of the method: as §1
# Gal4S6S(b1-4)GlcNAc = target: Gal4S6S(b1-4)GlcNAc
# Summary of the method: as §1
# Gal6S(b1-4)Glc = target: Gal6S(b1-4)Glc
# Summary of the method: as §1
# Gal6S(b1-4)Glc6S = target: Gal6S(b1-4)Glc6S
# Summary of the method: as §1
# Gal6S(b1-4)GlcNAc = target: Gal6S(b1-4)GlcNAc
# Summary of the method: as §1
# Gal6S(b1-4)GlcNAc6S = target: Gal6S(b1-4)GlcNAc6S
# Summary of the method: as §1
# GalNAc(a1-3)Gal = target: GalNAc(a1-3)Gal
# Summary of the method: as §1
# GalNAc(a1-3)GalNAc = target: GalNAc(a1-3)GalNAc
# Summary of the method: as §1
# GalNAc(b1-3)Gal = target: GalNAc(b1-3)Gal
# Summary of the method: as §1
# [2] = target: GalNAc(b1-3)Gal(a1-4)Gal(b1-4)GlcNAc
# Summary of the method: as §1
# GalNAc(b1-3)GalNAc = target: GalNAc(b1-3)GalNAc
# Summary of the method: as §1
# GalNAc(b1-4)GlcNAc = target: GalNAc(b1-4)GlcNAc
# Summary of the method: as §1
# Glc(a1-4)Glc = target: Glc(a1-4)Glc
# Summary of the method: as §1
# Glc(a1-6)Glc(a1-6)Glc = target: Glc(a1-6)Glc(a1-6)Glc
# Summary of the method: as §1
# Glc(b1-4)Glc = target: Glc(b1-4)Glc
# Summary of the method: as §1
# Glc(b1-6)Glc = target: Glc(b1-6)Glc
# Summary of the method: as §1
# GlcA(b1-3)Gal = target: GlcA(b1-3)Gal
# Summary of the method: as §1
# GlcA(b1-3)GlcNAc = target: GlcA(b1-3)GlcNAc
# Summary of the method: as §1
# GlcA(b1-6)Gal = target: GlcA(b1-6)Gal
# Summary of the method: as §1
# [3] = target: GlcNAc(a1-3)Gal(b1-4)GlcNAc
# Summary of the method: as §1
# [4] = target: GlcNAc(a1-6)Gal(b1-4)GlcNAc
# Summary of the method: as §1
# [5] = target: GlcNAc(b1-2)Gal(b1-3)GalNAc
# Summary of the method: as §1
# [6] = target: GlcNAc(b1-2)Man(a1-3)[GlcNAc(b1-2)Man(a1-6)]Man(b1-4)GlcNAc(b1-4)GlcNAc
# Summary of the method: as §1
# GlcNAc(b1-3)Gal = target: GlcNAc(b1-3)Gal
# Summary of the method: as §1
# [7] = target: GlcNAc(b1-3)Gal(b1-3)GalNAc
# Summary of the method: as §1
# GlcNAc(b1-3)Gal(b1-4)Glc = target: GlcNAc(b1-3)Gal(b1-4)Glc
# Summary of the method: as §1
# [8] = target: GlcNAc(b1-3)Gal(b1-4)GlcNAc
# Summary of the method: as §1
# [9] = target: GlcNAc(b1-3)Gal(b1-4)GlcNAc(b1-3)Gal(b1-4)GlcNAc
# Summary of the method: as §1
# GlcNAc(b1-3)GalNAc = target: GlcNAc(b1-3)GalNAc
# Summary of the method: as §1
# GlcNAc(b1-3)Man = target: GlcNAc(b1-3)Man
# Summary of the method: as §1
# [10] = target: GlcNAc(b1-3)[GlcNAc(b1-4)][GlcNAc(b1-6)]GlcNAc
# Summary of the method: as §1
# [11] = target: GlcNAc(b1-3)[GlcNAc(b1-6)]Gal(b1-4)GlcNAc
# Summary of the method: as §1
# [12] = target: GlcNAc(b1-3)[GlcNAc(b1-6)]GalNAc
# Summary of the method: as §1
# [13] = target: GlcNAc(b1-4)Gal(b1-4)GlcNAc
# Summary of the method: as §1
# GlcNAc(b1-4)GlcNAc = target: GlcNAc(b1-4)GlcNAc
# Summary of the method: as §1
# [14] = target: GlcNAc(b1-4)GlcNAc(b1-4)GlcNAc
# Summary of the method: as §1
# [15] = target: GlcNAc(b1-4)GlcNAc(b1-4)GlcNAc(b1-4)GlcNAc(b1-4)GlcNAc
# Summary of the method: as §1
# [16] = target: GlcNAc(b1-4)GlcNAc(b1-4)GlcNAc(b1-4)GlcNAc(b1-4)GlcNAc(b1-4)GlcNAc
# Summary of the method: as §1
# [17] = target: GlcNAc(b1-4)[GlcNAc(b1-6)]GalNAc
# Summary of the method: as §1
binder,measurement,setting,value
GH95CBM (Clostridium perfringens) (protein) EKVAVETSVYLSELEWKSASTGYGEIQKDASCDGNTITLKGENGEKVSYDKGIGTHAHSEIVYSLEGLDYYDYFETFVGVDQEMAGTVASISFEVYLDNEKVFDSGLMTGDTTQKHVKVPIAGKNTLKLVVKDGGDSIGSDHGSFGDAKLT,glycan array binding signal (z-score),Gal3S(b1-4)GlcNAc,-0.305
same,glycan array binding signal (z-score),Gal3S(b1-4)GlcNAc6S,-0.305
same,glycan array binding signal (z-score),[1],-0.328
same,glycan array binding signal (z-score),Gal3S4S(b1-4)GlcNAc,-0.295
same,glycan array binding signal (z-score),Gal3S6S(b1-4)GlcNAc,-0.298
same,glycan array binding signal (z-score),Gal3S6S(b1-4)GlcNAc6S,-0.208
same,glycan array binding signal (z-score),Gal4S(b1-4)GlcNAc,-0.339
same,glycan array binding signal (z-score),Gal4S6S(b1-4)GlcNAc,-0.321
same,glycan array binding signal (z-score),Gal6S(b1-4)Glc,-0.349
same,glycan array binding signal (z-score),Gal6S(b1-4)Glc6S,-0.149
same,glycan array binding signal (z-score),Gal6S(b1-4)GlcNAc,-0.248
same,glycan array binding signal (z-score),Gal6S(b1-4)GlcNAc6S,-0.36
same,glycan array binding signal (z-score),GalNAc(a1-3)Gal,0.021
same,glycan array binding signal (z-score),GalNAc(a1-3)GalNAc,-0.24
same,glycan array binding signal (z-score),GalNAc(b1-3)Gal,3.84
same,glycan array binding signal (z-score),[2],6.95
same,glycan array binding signal (z-score),GalNAc(b1-3)GalNAc,-0.347
same,glycan array binding signal (z-score),GalNAc(b1-4)GlcNAc,-0.345
same,glycan array binding signal (z-score),Glc(a1-4)Glc,-0.351
same,glycan array binding signal (z-score),Glc(a1-6)Glc(a1-6)Glc,0.99
same,glycan array binding signal (z-score),Glc(b1-4)Glc,0.94
same,glycan array binding signal (z-score),Glc(b1-6)Glc,-0.296
same,glycan array binding signal (z-score),GlcA(b1-3)Gal,-0.288
same,glycan array binding signal (z-score),GlcA(b1-3)GlcNAc,-0.389
same,glycan array binding signal (z-score),GlcA(b1-6)Gal,-0.227
same,glycan array binding signal (z-score),[3],0.245
same,glycan array binding signal (z-score),[4],-0.32
same,glycan array binding signal (z-score),[5],-0.336
same,glycan array binding signal (z-score),[6],0.824
same,glycan array binding signal (z-score),GlcNAc(b1-3)Gal,-0.314
same,glycan array binding signal (z-score),[7],-0.276
same,glycan array binding signal (z-score),GlcNAc(b1-3)Gal(b1-4)Glc,-0.347
same,glycan array binding signal (z-score),[8],-0.359
same,glycan array binding signal (z-score),[9],-0.37
same,glycan array binding signal (z-score),GlcNAc(b1-3)GalNAc,-0.302
same,glycan array binding signal (z-score),GlcNAc(b1-3)Man,-0.328
same,glycan array binding signal (z-score),[10],-0.339
same,glycan array binding signal (z-score),[11],-0.365
same,glycan array binding signal (z-score),[12],-0.328
same,glycan array binding signal (z-score),[13],-0.344
same,glycan array binding signal (z-score),GlcNAc(b1-4)GlcNAc,-0.356
same,glycan array binding signal (z-score),[14],-0.364
same,glycan array binding signal (z-score),[15],-0.133
same,glycan array binding signal (z-score),[16],-0.281
same,glycan array binding signal (z-score),[17],-0.339
